The campaign covered roughly 310,000 compounds. About 2,200 (0.71%) showed an effect of 50% or more. Effects have a minus sign here. This is one part of the list.

Sequence of human ether-à-go-go-related gene (hERG) potassium channel (Q12809 whole entry, looked up): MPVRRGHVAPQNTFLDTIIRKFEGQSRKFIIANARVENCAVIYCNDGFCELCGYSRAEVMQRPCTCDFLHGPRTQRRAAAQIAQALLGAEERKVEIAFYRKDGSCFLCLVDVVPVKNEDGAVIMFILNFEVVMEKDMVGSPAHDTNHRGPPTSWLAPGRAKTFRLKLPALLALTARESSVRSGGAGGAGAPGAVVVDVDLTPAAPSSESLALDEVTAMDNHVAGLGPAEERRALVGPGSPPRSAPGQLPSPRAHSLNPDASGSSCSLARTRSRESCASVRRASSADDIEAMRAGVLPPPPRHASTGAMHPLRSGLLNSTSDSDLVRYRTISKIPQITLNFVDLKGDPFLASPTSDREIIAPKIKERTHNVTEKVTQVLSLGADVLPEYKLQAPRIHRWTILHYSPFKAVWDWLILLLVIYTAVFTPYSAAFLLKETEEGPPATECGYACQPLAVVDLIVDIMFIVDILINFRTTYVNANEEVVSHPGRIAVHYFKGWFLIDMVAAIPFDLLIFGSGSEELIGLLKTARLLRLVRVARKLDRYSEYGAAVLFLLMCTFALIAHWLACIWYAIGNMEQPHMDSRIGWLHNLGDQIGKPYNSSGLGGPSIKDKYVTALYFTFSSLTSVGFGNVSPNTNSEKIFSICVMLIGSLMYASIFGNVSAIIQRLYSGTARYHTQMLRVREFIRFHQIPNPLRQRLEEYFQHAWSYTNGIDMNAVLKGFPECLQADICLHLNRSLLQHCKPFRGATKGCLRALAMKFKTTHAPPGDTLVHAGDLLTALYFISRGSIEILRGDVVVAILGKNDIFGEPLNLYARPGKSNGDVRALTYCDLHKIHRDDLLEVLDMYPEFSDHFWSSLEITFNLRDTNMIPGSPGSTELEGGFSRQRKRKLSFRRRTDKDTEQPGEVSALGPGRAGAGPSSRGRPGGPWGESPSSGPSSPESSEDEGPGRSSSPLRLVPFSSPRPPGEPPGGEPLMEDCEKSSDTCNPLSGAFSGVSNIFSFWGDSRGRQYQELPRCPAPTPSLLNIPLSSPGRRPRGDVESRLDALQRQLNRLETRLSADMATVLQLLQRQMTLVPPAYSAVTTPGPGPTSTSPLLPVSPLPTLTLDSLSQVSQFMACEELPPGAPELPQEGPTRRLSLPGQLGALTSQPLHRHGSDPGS

The assay has as its target human ether-à-go-go-related gene (hERG) potassium channel (human, UniProt Q12809). The assay can be described thus: primary screen, population patch clamp on CHO cells stably expressing hERG.
On to `CCN(CC(=O)Nc1ccccc1OC)C(=O)CN1C(=O)NC(C)(c2ccc(C)cc2)C1=O` (centres unmarked), for which the “hERG current change (%, negative = inhibition) at 1uM” value is -2.64%.
Then `O=C(CN1CCN(S(=O)(=O)c2ccc(Br)cc2)CC1)Nc1ccccc1F`, with 1.13%.
The figure for `CCOc1ccc(NC(=O)CN(C)C(=O)CC2CCCC2)cc1OCC` is 11.4%; for `O=C(CSc1cc(Cl)ccc1Cl)NC1CCCc2ccccc21` (centres unmarked) it is 1.23%; for `O=C(CCn1c2c(c3ccccc31)CCCC2)NNC(=O)c1ccccc1[N+](=O)[O-]` it is -0.313%.
The figure for `CCOC(=O)c1cnc2ccc(OCC)cc2c1NCCN1CCOCC1.Cl` is -32.8%; for `COc1ccc(NC(=S)NCCCN2CCCC2)cc1` it is 10.8%.
As for `O=c1cc(N2CCc3ccccc32)[nH]c(=O)n1Cc1ccc(F)cc1`, the “hERG current change (%, negative = inhibition) at 1uM” value amounted to 7.35%.
For the compound `CSc1cc(-c2ccccc2)n(Cc2ccc(Cl)cc2Cl)c(=O)c1C#N`, the “hERG current change (%, negative = inhibition) at 1uM” value amounted to 6.42%.
The figure for `O=C(O)Cn1nc(-c2ccccc2)cc1-c1ccccc1` is 13.8%; for `c1ccc(CN2CCN(Cc3nnc(-c4ccccc4)o3)CC2)cc1` it is 0.426%.
Then `CCCCn1c(N)c(N(CC)C(=O)c2cccc(F)c2)c(=O)[nH]c1=O`, with 10.2%; and `CCS(=O)(=O)N1Cc2ccccc2CC1C(=O)Nc1nc(C)cs1` (centres unmarked), with 14.1%.
On to `Cc1noc(C(=O)N(C)c2ccccc2)c1Cl`, for which the “hERG current change (%, negative = inhibition) at 1uM” value came out at 32.5%.
The figure for `CCOC(=O)c1c(C)oc2ccc(O)cc12` is 11.5%; for `Cc1ccc(N(C(=O)CNC(=O)c2ccco2)C(C(=O)NC2CCCC2)c2ccncc2)c(C)c1` (centres unmarked) it is 18.8%.
The figure for `COc1ccc(S(=O)(=O)NCC2CCCO2)cc1NC(=O)c1ccccc1F` (centres unmarked) is 16.5%.
The figure for `Cc1nc2c(=O)n(C)c(=O)nc-2n(C)n1` is 4.43%; for `CN(C)c1ccc(/C=C/C(=O)c2ccc3c(c2)OCCO3)cc1[N+](=O)[O-]` it is 5.57%; for `COc1ccccc1NC(=O)CCN1CCN(C)CC1` it is 13%.
As to `Nc1ccc(-n2nnnc2-c2ccco2)cc1`, the “hERG current change (%, negative = inhibition) at 1uM” value is recorded as 11.1%.
As for `CC(C)[C@H](NC(=O)N1CC(=O)Nc2ccccc21)C(=O)N[C@H](Cc1c[nH]c2ccccc12)C(=O)O`, the “hERG current change (%, negative = inhibition) at 1uM” value worked out at 3.03%.
Regarding `COc1ccc(-c2[nH]c(-c3cccc(OC)c3)nc2SCC(=O)NCc2ccco2)cc1`, the “hERG current change (%, negative = inhibition) at 1uM” value is 13.8%.
As for `Cc1ccc(C(C(=O)NC2CCCC2)N(Cc2ccco2)C(=O)CCC(=O)Nc2ccccn2)cc1` (centres unmarked), the “hERG current change (%, negative = inhibition) at 1uM” value is given as -0.304%.
As for `O=C(Nc1ccc2c(c1)CCC2)c1cc(F)cc(F)c1`, the “hERG current change (%, negative = inhibition) at 1uM” value is given as 11.9%.
Then `CCC(=O)N1N=C(c2ccccc2)CC1c1ccc([N+](=O)[O-])cc1` (centres unmarked), with -2.04%; and `COc1ccc(OCC(=O)Nc2ccc(S(=O)(=O)Nc3cc(C)on3)cc2)cc1`, with -9.83%.
Turning to `CC(C)(C)NC(=O)C1CCC(CNc2c(N3CCCCC3)c(=O)c2=O)CC1` (centres unmarked), the “hERG current change (%, negative = inhibition) at 1uM” value worked out at 9.61%.
The figure for `Cc1ccc(NC(=S)N2CCOCC2)c(C)c1` is 16.4%; for `COc1ccccc1NC(=O)c1cc(C(=O)Nc2ccccc2OC)cc([N+](=O)[O-])c1` it is 10.4%; for `Cc1cccc(N(CC(=O)Nc2cccnc2)S(C)(=O)=O)c1` it is 7.13%.
Then `CC1CCN(C(=O)c2cc(S(=O)(=O)N3CCOCC3)ccc2N2CCCC2)CC1`, with 12.7%; and `COc1ccc(OCCCC(=O)N(CCC2=CCCCC2)c2c(N)n(Cc3ccccc3)c(=O)[nH]c2=O)cc1`, with 13.9%.
Take `O=C(COc1ccc(Cl)cc1)N1CCN(C(=O)c2cccc(F)c2)CC1`: the “hERG current change (%, negative = inhibition) at 1uM” value is recorded as -8.03%.
Turning to `COc1cc(C(=O)Nc2ccc3c(c2)OCCO3)ccc1OC(F)F`, the “hERG current change (%, negative = inhibition) at 1uM” value was -3.81%.
Then `O=C(NCc1ccc2c(c1)OCO2)c1nc(S(=O)(=O)Cc2ccccc2F)ncc1Cl`, with 0.887%.
Then `CCN(CC)S(=O)(=O)c1ccc(OC(C)C)c(NC(=O)C2=COCCO2)c1`, with -0.431%; and `CC(=O)Nc1ccc2nc(-c3cccn3C)[nH]c2c1`, with 13.6%.
Then `O=C(c1ccco1)N1CCN(c2ncnc3c(-c4ccc(Cl)cc4)nsc23)CC1`, with 17.1%; and `CC(C)c1ccc(NC(=O)COc2ccccc2)cc1`, with 13.4%; and `CC(C(=O)N1CCc2ccccc21)N1CCN(c2ccccn2)CC1` (centres unmarked), with 7.44%.
Consider `O=C(O)c1cccnc1C(=O)O`, for which the “hERG current change (%, negative = inhibition) at 1uM” value is 14.2%.
The figure for `CC(C)(C)c1ccc(C(=O)Nc2cccc3c(=O)[nH][nH]c(=O)c23)cc1` is 4%.
The figure for `CCn1c(C(O)c2ccc3c(c2)OCO3)nc2ccccc21` (centres unmarked) is 7.78%.

Values taken from article PMC4336329 (PLoS ONE, 2015).
